Structures can show the parent of a compound that is named as a salt. Inhibition of entry of single-cycle reporter particles into MDCK-SIAT1 cells, 3 h drug pretreatment, overnight read-out. IC50, lower = stronger. No active / inactive call; only inhibitors are listed. Mostly one titration per compound.
Each molecule was assayed on E-S-FLU (Zaire C15 EBOV-GP pseudotyped S-FLU) in MDCK-SIAT1 cells (assay: IC50 inhibition of E-S-FLU (EBOV-GP pseudotyped influenza) infection).
Experimental: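 MDCK-SIAT1 cells were pretreated for 3 h with two-fold drug dilutions, then exposed overnight to a single-cycle eGFP reporter particle coated with the named glycoprotein; eGFP read on fixed cells. Mostly one titration per compound; only inhibitors are listed.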

SMILES | IC50 inhibition of E-S-FLU [µM]
C=CCN1CCc2cc(O)c(O)cc2C(c2ccccc2)C1 (stereo not drawn) | 132
CC(C)(N)c1ncc(-c2ccc(OC(F)(F)F)cc2)[nH]1 | 53
CC(C)[C@H](NC(=O)OCc1ccccc1)C(=O)N[C@H](C=O)Cc1ccccc1 | 3.81
CC1CCN(CC[C@H]2CCCN2S(=O)(=O)c2cccc(O)c2)CC1 | 38.5
CCN(CC)CCOc1ccc(Nc2ncc3cc(-c4c(Cl)cccc4Cl)c(=O)n(C)c3n2)cc1 | 0.2
CCN(CC)Cc1ccc(C(=O)N(CCc2ccccc2OC)[C@@H]2CCNC2)cc1 | 19.1
CN(C)CCCc1cc(C(=O)Nc2ccc(-c3ccncc3)cc2)ccc1O | 21.8
CN1CCC[C@@H]1Cc1c[nH]c2ccc(Nc3ncccc3[N+](=O)[O-])cc12 | 44.3
CN1CCN(c2nc3cc(C(F)(F)F)ccc3n3cccc23)CC1 | 11.8
COC(=O)C1=C(C)NC(C)=C(C(=O)OC)C1c1cccc(NC(=O)NCCCN2CCC(c3cccc(OC)c3)CC2)c1 | 14.7
COC(=O)N1CCN(C(=O)Cc2ccc(Cl)c(Cl)c2)C(CN2CCCC2)C1 (stereo not drawn) | 71
COc1cc2nc(N3CCCN(C)CC3)nc(NC3CCN(Cc4ccccc4)CC3)c2cc1OC | 1
COc1ccc(/C=C/c2nc(NCCCN(C)C)c3ccccc3n2)cc1 | 5.5
COc1ccc(NC(=O)c2ccc(-c3ccc(-c4noc(C)n4)cc3C)cc2)cc1N1CCN(C)CC1 | 4.5
COc1ccc2c(c1)CC[C@@H]1[C@@H]2CC[C@]2(C)[C@@H](NCCCCCCN3C(=O)CCC3=O)CC[C@@H]12 | 3.9
COc1ccccc1CNC1CCCNC1c1ccccc1 (stereo not drawn) | 29.7
COc1ccccc1CN[C@H]1CCCN[C@H]1c1ccccc1 | 34.2
Cc1cc2nc(NCCCO)n(CC(=O)c3cc(C(C)(C)C)c(O)c(C(C)(C)C)c3)c2cc1C | 12.7
Cn1c(=O)c(-c2c(Cl)cccc2Cl)cc2cnc(Nc3ccc(N4CCOCC4)cc3)nc21 | 0.6
Cn1cc(C(=O)OCC2CCN(CCNS(C)(=O)=O)CC2)c2ccccc21 | 145
Fc1ccc(C(OCCN2CCN(CCCc3ccccc3)CC2)c2ccc(F)cc2)cc1 | 15.7
O=C(NOCC1CC1)c1cc(Br)c(F)c(F)c1Nc1ccc(I)cc1Cl | 23
c1cc(CN2CCCCC2)cc(OCCCNc2nc3ccccc3s2)c1 | 19.2
CC(C)(C)[C@]1(O)CCN2C[C@H]3c4ccccc4CCc4cccc(c43)[C@@H]2C1 (racemic) [(±)-Butaclamol hydrochloride] | 27.4
COc1cc2c(cc1O)CC[C@@H]1[C@@H]2CC[C@]2(C)[C@@H](O)CC[C@@H]12 [2-methoxy estradiol] | 48.8
NC(N)=NC(=O)c1nc(Cl)c(N2CCCCCC2)nc1N [5-(N,N-hexamethylene) amiloride] | 16.7

SMILES | IC50 inhibition of E-S-FLU [µM]
CCN(c1nc(N)c(C(=O)NC(=N)N)nc1Cl)C(C)C [5-(N-Ethyl-N-isopropyl) amiloride (EIPA)] | 17.8
NC(Cc1cc(O)c(O)cc1O)C(=O)O (stereo not drawn) [6-Hydroxy-DL-DOPA] | 81.4
CC1=C(/C=C/C(C)=C/C=C/C(C)=C\C(=O)O)C(C)(C)CCC1 [13-cis-retinoic acid] | 123
CC(C)(C)[C@]1(O)CCN2C[C@H]3c4ccccc4CCc4cccc(c43)[C@@H]2C1 [(+)-Butaclamol hydrochloride] | 27
COc1ccc(CCN(C)CCCC(C#N)(c2cc(OC)c(OC)c(OC)c2)C(C)C)cc1OC (stereo not drawn) [(±)-Methoxyverapamil HCl] | 52.5
CN1CCN(C2Cc3ccccc3Sc3ccc(Cl)cc32)CC1 (stereo not drawn) [(±)-Octoclothepin maleate] | 7.7
CC(C)NCC(O)COc1cccc2ccccc12 (stereo not drawn) [(±)-Propranolol HCl] | 99.8
NCCNS(=O)(=O)c1cccc2c(Cl)cccc12 [A3 hydrochloride] | 47
CC(C)(C)c1ccc(/C=C/C(=O)Nc2ccc3c(c2)OCCO3)cc1 [AMG 9810] | 34.8
c1ccc(C(NCCNC(c2ccccc2)c2ccccc2)c2ccccc2)cc1 [AMN082] | 16.5
Clc1ccccc1CNCC1CCC(CNCc2ccccc2Cl)CC1 (stereo not drawn) [AY9944] | 7.81
CC(=O)c1ccc2c(c1)N(CCCN(C)C)c1ccccc1S2 [Acepromazine maleate] | 24.6
CC(N)C(=O)OC(C)(C)Cc1ccc(Cl)cc1 (stereo not drawn) [Alaproclate hydrochloride] | 30
CN1[C@@H]2CC[C@H]1C[C@@H](OC(c1ccccc1)c1ccccc1N)C2 (stereo partly drawn) [Aminobenztropine] | 23
CCCCc1oc2ccccc2c1C(=O)c1cc(I)c(OCCN(CC)CC)c(I)c1 [Amiodarone hydrochloride] | 2.04
CN(C)CCC=C1c2ccccc2CCc2ccccc21 [Amitriptyline hydrochloride] | 18.8
Clc1ccc2c(c1)C(N1CCNCC1)=Nc1ccccc1O2 [Amoxapine] | 18.6
O=c1cc(-c2ccc(O)cc2)oc2cc(O)cc(O)c12 [Apigenin] | 67.4
CN1CCc2cccc3c2[C@H]1Cc1ccc(O)c(O)c1-3 [Apomorphine HCl hemihydrate] | 60.4
CCN(CC)CCCN(c1ccccc1)C1Cc2ccccc2C1 [Aprindine hydrochloride] | 10.6
CCOC(=O)c1c(CSc2ccccc2)n(C)c2cc(Br)c(O)c(CN(C)C)c12 [Arbidol] | 5.17
O=C(O)C1=CC(=C(c2ccc(O)c(C(=O)O)c2)c2ccc(O)c(C(=O)O)c2)C=CC1=O [Aurintricarboxylic acid] | 26.6
CC[C@H]1OC(=O)[C@H](C)[C@@H](O[C@H]2C[C@@](C)(OC)[C@@H](O)[C@H](C)O2)[C@H](C)[C@@H](O[C@@H]2O[C@H](C)C[C@H](N(C)C)[C@H]2O)[C@](C)(O)C[C@@H](C)CN(C)[C@H](C)[C@@H](O)[C@]1(C)O [Azithromycin] | 6.7
COc1ccc(-c2cc3ncc(C)n3c(Nc3ncccc3C(N)=O)n2)cc1OC [BAY 61-3606 hydrochloride hydrate] | 12.8
O=C1/C(=C/c2ccccc2)C[C@@]2(O)[C@H]3Cc4ccc(O)c5c4[C@@]2(CCN3CC2CC2)[C@H]1O5 [BNTX maleate salt hydrate] | 6.9
COc1ccccc1N1CCN(CCCCNC(=O)c2ccc3ccccc3c2)CC1 [BP 897] | 34.3

SMILES | IC50 inhibition of E-S-FLU [µM]
c1ccc2sc(C3(N4CCCCC4)CCCCC3)cc2c1 [BTCP hydrochloride] | 41.4
CC(N)Cc1c[nH]c2ccc(OCc3cccs3)cc12 (stereo not drawn) [BW723C86] | 22.4
COc1cccc(OC)c1OCCNCC1CSc2ccccc2O1 (stereo not drawn) [Benoxathian hydrochloride] | 61.7
CN1[C@@H]2CC[C@H]1C[C@@H](OC(c1ccccc1)c1ccccc1)C2 [Benztropine mesylate] | 9.6
CN1[C@@H]2CC[C@H]1C[C@@H](OC(c1ccccc1)c1ccccc1)C2 [Benztropine] | 9.76
CC(C)COCC(CN(Cc1ccccc1)c1ccccc1)N1CCCC1 (stereo not drawn) [Bepridil] | 2.68
CC(C)NCC(O)COc1ccc(CCOCC2CC2)cc1 (stereo not drawn) [Betaxolol hydrochloride] | 81.8
OC(CCN1CCCCC1)(c1ccccc1)C1CC2C=CC1C2 (stereo not drawn) [Biperiden hydrochloride] | 34.8
CC(C)NCC(O)COc1ccc(COCCOC(C)C)cc1 (stereo not drawn) [Bisoprolol hemifumarate] | 86.9
COc1cc(Nc2c(C#N)cnc3cc(OCCCN4CCN(C)CC4)c(OC)cc23)c(Cl)cc1Cl [Bosutinib] | 3.53
CCc1cccc(N(C)C(=N)Nc2cccc3ccccc23)c1 [CNS-1102] | 53.3
CCN(CC)CCOCCOC(=O)C1(c2ccccc2)CCCC1 [Carbetapentane citrate] | 48
CCN(CC)CCn1c(=O)c(Cc2ccc(OC)cc2)nc2ccccc21 [Caroverine hydrochloride] | 71.3
COc1ccccc1OCCNCC(O)COc1cccc2[nH]c3ccccc3c12 (stereo not drawn) [Carvedilol] | 12.7
CN(C)CCCN1c2ccccc2Sc2ccc(Cl)cc21 [Chlorpromazine hydrochloride] | 17.3
CN(C)CC/C=C1/c2ccccc2Sc2ccc(Cl)cc21 [Chlorprothixene hydrochloride] | 12.6
c1ccc(C2(c3ccccc3)CC2C2=NCCN2)cc1 (stereo not drawn) [Cibenzoline succinate] | 107
CC[C@H]1OC(=O)[C@H](C)[C@@H](O[C@H]2C[C@@](C)(OC)[C@@H](O)[C@H](C)O2)[C@H](C)[C@@H](O[C@@H]2O[C@H](C)C[C@H](N(C)C)[C@H]2O)[C@](C)(OC)C[C@@H](C)C(=O)[C@H](C)[C@@H](O)[C@]1(C)O [Clarithromycin] | 14
Clc1ccc(Cn2c(CN3CCCC3)nc3ccccc32)cc1 [Clemizole hydrochloride] | 110
CCN(CC)CCOc1ccc(C(=C(Cl)c2ccccc2)c2ccccc2)cc1 [Clomiphene] | 0.35
CN(C)CCCN1c2ccccc2CCc2ccc(Cl)cc21 [Clomipramine hydrochloride] | 13.9
CN1CCN(C2=Nc3cc(Cl)ccc3Nc3ccccc32)CC1 [Clozapine] | 26.1
CN(C)CCC=C1c2ccccc2C=Cc2ccccc21 [Cyclobenzaprine hydrochloride] | 20.3
CN1CCC(=C2c3ccccc3C=Cc3ccccc32)CC1 [Cyproheptadine hydrochloride] | 17.4
COc1cc2c(cc1O)[C@@H](Cc1ccc(O)c(Oc3ccc(C[C@@H]4c5cc(OC)c(OC)cc5CCN4C)cc3)c1)N(C)CC2 [Daurisoline] | 5.1
CNCCCN1c2ccccc2CCc2ccccc21 [Desipramine hydrochloride] | 19.4
